Data as given in publication PMC6919601, “Identification of Plasmodium dipeptidyl aminopeptidase allosteric inhibitors by high throughput screening” (PLoS ONE, 2019).
About 230 (0.21%) of roughly 110,000 compounds showed an effect of 50% or more. The list shows a part of the results.

The compounds below were run against DPAP1 (Plasmodium falciparum, UniProt Q8IIJ9) (assay: primary screen, percent inhibition; read by cleavage of a fluorogenic dipeptide substrate; higher = more effect of the substance).
Design: species or system P. falciparum D10 trophozoite lysates; single well
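Also: 30 min substrate incubation versus DMSO and 10 µM JCP410 controls.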

Sequence of DPAP1 (Q8IIJ9 whole entry, looked up): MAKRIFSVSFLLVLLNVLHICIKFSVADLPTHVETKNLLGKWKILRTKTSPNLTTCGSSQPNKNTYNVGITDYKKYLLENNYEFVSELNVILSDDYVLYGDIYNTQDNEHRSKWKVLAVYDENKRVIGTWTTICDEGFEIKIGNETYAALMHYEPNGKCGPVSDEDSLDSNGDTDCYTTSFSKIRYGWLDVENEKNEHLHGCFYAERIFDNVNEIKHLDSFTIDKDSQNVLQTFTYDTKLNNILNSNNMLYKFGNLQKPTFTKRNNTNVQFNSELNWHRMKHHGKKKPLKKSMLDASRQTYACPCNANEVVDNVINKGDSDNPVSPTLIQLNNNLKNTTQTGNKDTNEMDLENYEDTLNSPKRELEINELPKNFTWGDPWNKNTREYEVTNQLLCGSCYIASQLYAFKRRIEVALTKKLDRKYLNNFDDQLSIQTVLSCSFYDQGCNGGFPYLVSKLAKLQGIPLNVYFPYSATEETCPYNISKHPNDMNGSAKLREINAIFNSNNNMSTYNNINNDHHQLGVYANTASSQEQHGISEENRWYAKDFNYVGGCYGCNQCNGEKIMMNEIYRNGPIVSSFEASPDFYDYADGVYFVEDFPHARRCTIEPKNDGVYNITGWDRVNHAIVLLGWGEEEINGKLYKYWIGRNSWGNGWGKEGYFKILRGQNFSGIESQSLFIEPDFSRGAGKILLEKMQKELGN

Row | Compound | % Inhibition @ 10 uM [%]
1 | O=C(CC1(O)C(=O)Nc2ccccc21)c1ccc2ccccc2c1 (centres unmarked) | -3.48
2 | CCCCC(=O)NC1(C(F)(F)F)C(=O)Nc2c1c(=O)[nH]c(=O)n2CCc1ccc(OC)c(OC)c1 (centres unmarked) | 5.12
3 | Cc1c(Br)c(C(F)(F)F)nn1CC(=O)NCCc1ccccc1 | -2.85
4 | CC1=CC(C)C2COC(c3ccc4c(c3)OCO4)C1C2C (centres unmarked) | 5.16
5 | COc1cc(CNCc2ccccc2)ccc1Oc1nc2ccccc2n2cnnc12 | 3.93
6 | CC(C)CNC(=O)CN(C1CCCCC1)S(C)(=O)=O | 1.17
7 | COc1cc(CN2CC(C)OC(C)C2)cc(OC)c1OC (centres unmarked) | 7.2
8 | Cc1nc2ccc(S(=O)(=O)N(C)CC(=O)NCc3ccc(F)cc3)cc2s1 | 7.31
9 | C#CC12C(=O)N(C)C3C(CCO)C1C=CCC32 (centres unmarked) | 3.8
10 | CCOC(=O)N1CCC(NC(=O)C2CCN(S(=O)(=O)c3cccs3)CC2)CC1 | -3.36
11 | COc1ccc(N2CCN(CC(O)COc3ccc(Cl)c(C)c3)CC2)cc1 (centres unmarked) | -1.22
12 | O=C1NC(=O)/C(=C\c2ccc(C(=O)O)cc2)N1 | -1.25
13 | Cc1ccc(S(=O)(=O)N2CCC2)cc1 | -2.51
14 | CCC(=O)N1C(C(=O)NCc2ccc(F)cc2)CSC12CCN(C)CC2 (centres unmarked) | -5.15
15 | Cc1nc2nc(NC(=O)Cc3ccccc3)nn2c(C)c1Cl | 2.05
16 | COc1cccc(CN2CCN(Cc3cccc(Cl)c3)CC2)c1 | 4.37
17 | CCn1cc(-c2c(C#N)c(N)nc(OC)c2C#N)c(C)n1 | 2.77
18 | CCCCCc1c(C)nc(N2CCN(Cc3ccc4c(c3)OCO4)CC2)nc1O | 3.36
19 | CCOC(=O)C1=C(O)/C(=C\c2ccccc2OC)N=C1C | -1.6
20 | CCO/C(O)=C1\C(C)=NC(=S)NC1c1ccc(Cl)c(Cl)c1 (centres unmarked) | -5.28
21 | O=C(c1coc(=O)c2ccccc12)N1CCN(Cc2ccccc2)CC1 | 4.33
22 | Cc1cc(N2C(=O)c3ccc(C45CC6CC(CC(C6)C4)C5)cc3C2=O)no1 | 0.032

Row | Compound | % Inhibition @ 10 uM [%]
23 | O=C(Nc1cccc(NC(=O)c2ccc(Br)o2)n1)c1ccc(Br)o1 | 2.79
24 | COc1ccccc1CN1CCC(CNS(=O)(=O)c2cc(-c3cc(C)no3)ccc2C)CC1 | -5.69
25 | Cc1cc(NC2(C(F)(F)F)N=C3SCCN3C2=O)no1 (centres unmarked) | -5.2
26 | Cc1ccc(SCCC(=O)NCC2CCCO2)cc1 (centres unmarked) | 0.145
27 | Cc1ccc2oc(-c3ccc(C)c(NC(=O)c4ccccc4)c3)nc2c1 | -4.31
28 | CCN(CCN(C)C)Cc1ccc(OC)c(OC)c1 | -1.78
29 | Cc1ccc(CNC(=O)C2CCN(S(=O)(=O)c3cccc4nsnc34)CC2)cc1 | -1.54
30 | CCC(C)NC(=O)C1CC(=O)N(Cc2ccc(OC)cc2)C1 (centres unmarked) | -1.79
31 | CCc1ccc(CNCc2c(C(=O)O)n(Cc3ccccc3F)c3ccccc23)cc1 | 2.24
32 | Nc1nc2ccc(Cc3nc4ccccc4[nH]3)cc2s1 | 7.02
33 | COc1ccc(C/N=C/C2C(=O)N(c3nc4ccccc4s3)N=C2c2ccccc2)cc1 (centres unmarked) | 3.59
34 | Oc1cc(CN2CCCCCC2)c(O)cc1CN1CCCCCC1 | -5.96
35 | CCn1c(C)cc(/C=C2\SC(Nc3ccccc3)=NC2=O)c1C | -1.46
36 | CN(CC(=O)NCCc1ccccc1)S(=O)(=O)c1cccs1 | 0.559
37 | CCN1CCN(C(=O)c2cc(-c3ccc(C)cc3)nc3ccccc23)CC1 | 0.826
38 | CC(NC(=O)Cc1noc2ccccc12)c1ccccc1 (centres unmarked) | 0.943
39 | CN(C(=O)C1CCC(CNS(=O)(=O)c2cccc3cccnc23)CC1)C1CCCCC1 (centres unmarked) | 2.6
40 | COc1ccc(CCNC(=O)C2CCN(S(=O)(=O)c3c[nH]cn3)CC2)cc1OC | 1.23
41 | Cc1cc2c(cc3c(SCc4ccccc4F)nnc(C)n32)o1 | 2
42 | Cc1ccc(OCCCN2CCOCC2)cc1C | -4.95
43 | Cc1ccc(S(=O)(=O)NCC2c3ccccc3CCN2S(=O)(=O)c2ccc(C)cc2)cc1 (centres unmarked) | -3.75
44 | O=C(Nc1c(C(=O)N2CCN(c3ncccn3)CC2)oc2ccccc12)C1CCCCC1 | -1.25

Row | Compound | % Inhibition @ 10 uM [%]
45 | Cc1c2cnn(CC(=O)N3CCN(C(=O)c4ccco4)CC3)c(=O)c2c(C)n1Cc1ccccc1 | 1.22
46 | Cc1cccn2c(=O)c3cc(C(=O)NC4CCCCC4)c(=N)n(CCc4ccccc4)c3nc12 | 0.279
47 | Cc1cc(COc2ccccc2OCCN2CCN(C)CC2)no1 | 2.14
48 | CCOc1cc(C(=O)N(Cc2nc(-c3ccc(Cl)cc3)no2)C(C)C)cc(OCC)c1OCC | 2.78
49 | CCOc1ccc(S(=O)(=O)N(CC(=O)NC2CC3CCC2C3)c2ccccc2)cc1 (centres unmarked) | -0.992
50 | O=C(Cn1c(=O)oc2ccccc21)c1ccccc1 | -8.64
51 | COc1cc2c(cc1OC)C(COc1ccccc1OC)N(C(=O)CSCc1ccccc1)CC2 (centres unmarked) | 3.8
52 | O=C(NCCc1ccccc1)c1cc(Br)cs1 | 0.219
53 | O=C(CSc1nc2ccsc2c(=O)n1Cc1ccccc1)N1CCCC1 | 3.86
54 | Cc1nc2nc(SCC(=O)NCCc3ccccc3)nn2c(C)c1Cc1ccccc1 | 4.36
55 | c1ccc2c3c([nH]c2c1)C(c1ccc2c(c1)OCO2)NCC3 (centres unmarked) | 1.21
56 | CCc1n[nH]c(SCC(=O)c2ccc(OC)cc2)n1 | 5.59
57 | O=Cc1cn(Cc2nc(-c3ccc(Br)cc3)no2)c2ccccc12 | -3.06
58 | CC(=O)NCCOc1ccccc1F | -2.02
59 | O=C(CN1CCN(Cc2ccc3c(c2)OCO3)CC1)NCc1cccs1 | 6.31
60 | CCCCCn1c(CN2CCN(C(=O)OCC)CC2)nc2c1c(=O)n(C)c(=O)n2C | 2
61 | Cc1sc2[nH]c(=S)n(-c3ccccc3)c(=O)c2c1C | 72.2
62 | O=C(NCC1CCCO1)c1ccccc1F (centres unmarked) | 4.54
63 | Cc1cccc(NC(=O)c2ccc3c(c2)C(=O)N(c2ccccn2)C3=O)c1C | -2.29
64 | O=C(Nc1cc(Cl)ccc1Cl)c1ccc2ccccc2c1 | 2.65
65 | CCOc1ccccc1C1C(C(=O)c2ccc(OC)cc2C)=C(O)C(=O)N1Cc1cccnc1 (centres unmarked) | -1.52
